Assay results as given in paper PMC8844851 (The Journal of Biological Chemistry, 2022).
Where a chain is given by its changes, count along the chain named. Like-named read-outs stand apart in the source and are kept apart here. Results are given in words; binding and its absence hold for the method and conditions named. In cells and extracts the contact can be indirect. Some entries that bind do so weakly or less than the wild type. For part of these data: Tags and fused reporters may be left off the sequences shown.

Chains of the proteins cited; added tags and fusions are not shown.
UniProt O75794: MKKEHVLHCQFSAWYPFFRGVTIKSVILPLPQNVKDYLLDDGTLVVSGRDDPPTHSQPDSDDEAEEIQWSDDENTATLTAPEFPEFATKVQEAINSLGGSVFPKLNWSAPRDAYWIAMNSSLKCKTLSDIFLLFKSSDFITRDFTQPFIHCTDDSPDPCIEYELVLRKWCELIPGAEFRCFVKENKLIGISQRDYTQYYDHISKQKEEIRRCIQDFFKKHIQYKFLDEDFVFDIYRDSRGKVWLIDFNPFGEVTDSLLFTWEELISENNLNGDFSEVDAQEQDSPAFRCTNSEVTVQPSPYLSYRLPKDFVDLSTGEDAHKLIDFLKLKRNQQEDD
UniProt P41091: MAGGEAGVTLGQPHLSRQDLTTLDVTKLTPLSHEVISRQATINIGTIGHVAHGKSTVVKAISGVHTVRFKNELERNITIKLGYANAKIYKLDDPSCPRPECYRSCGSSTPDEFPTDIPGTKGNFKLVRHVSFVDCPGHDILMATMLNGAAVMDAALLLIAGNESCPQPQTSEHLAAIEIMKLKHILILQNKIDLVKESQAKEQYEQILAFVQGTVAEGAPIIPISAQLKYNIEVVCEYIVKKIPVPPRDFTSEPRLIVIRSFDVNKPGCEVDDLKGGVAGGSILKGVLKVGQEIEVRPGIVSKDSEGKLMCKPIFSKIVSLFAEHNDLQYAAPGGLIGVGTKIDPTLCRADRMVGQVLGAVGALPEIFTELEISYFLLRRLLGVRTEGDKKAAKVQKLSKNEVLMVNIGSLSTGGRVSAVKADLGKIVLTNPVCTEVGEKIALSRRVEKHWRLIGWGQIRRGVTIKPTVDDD

Assays:
[1] = target: ^FLAGhCdc123 in Flp-In T-REx-293 cells (human) (UniProt O75794); assay: co-IP; Flp-In T-REx-293 cells with FLAG-heIF2γ or FLAG-hCdc123; around 8 mg lysate (150 mM NaCl, 50 mM Tris-HCl pH 8.2, 1% Triton X-100) on M2 anti-FLAG matrix, 2 h, 4 °C, eluted with 3x FLAG peptide; enrichment from extract to IP, heIF2γ set to 100% (n = 1)
[2] = target: T1, N-terminally FLAG-tagged Sui3 L134R/L135R (S. cerevisiae) (UniProt P09064); assay: co-IP; N-terminally FLAG-tagged Sui3 variants (GAL1 promoter) precipitated with anti-FLAG beads from yeast extract; Western blot for Gcd11, Sui2, Cdc123 and Tif5-13xMYC
T1 sequence: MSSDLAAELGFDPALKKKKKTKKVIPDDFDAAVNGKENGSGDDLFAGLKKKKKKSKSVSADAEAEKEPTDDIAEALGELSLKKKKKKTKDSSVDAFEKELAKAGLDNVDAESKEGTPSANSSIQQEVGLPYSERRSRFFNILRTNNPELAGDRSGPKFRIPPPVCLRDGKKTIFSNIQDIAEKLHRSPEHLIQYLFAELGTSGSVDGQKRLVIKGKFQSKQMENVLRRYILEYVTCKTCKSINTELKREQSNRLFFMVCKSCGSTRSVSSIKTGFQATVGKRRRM

[3] = target: T2, N-terminally FLAG-tagged Sui3 Y131A/S132A (S. cerevisiae) (UniProt P09064); assay: as above
T2 sequence: T1 sequence with Y131A, S132A, R134L, R135L

[4] = target: endogenously FLAG-tagged Gcd11 (S. cerevisiae) (UniProt P32481); assay: co-IP; endogenously FLAG-tagged Sui2, Sui3 or Gcd11 precipitated with anti-FLAG beads from yeast extract, 4 °C, 2 h; Cdc123 signal normalised to the FLAG-tagged subunit, Gcd11 set to 100% (n = 3)
[5] = target: FLAG-tagged Gcd11 (1-514) (S. cerevisiae) (UniProt P32481); assay: co-IP; FLAG-Gcd11 variants (coexpressed with endogenous Gcd11) precipitated with anti-FLAG beads from yeast whole cell extract (around 2 mg protein), 4 °C, 2 h; Western blot of coprecipitated proteins; Cdc123 quantified against WT Gcd11 (n = 3)
[6] = target: T3, FLAG-tagged Gcd11 (410-527), domain III (S. cerevisiae) (UniProt P32481); assay: as above
T3 sequence: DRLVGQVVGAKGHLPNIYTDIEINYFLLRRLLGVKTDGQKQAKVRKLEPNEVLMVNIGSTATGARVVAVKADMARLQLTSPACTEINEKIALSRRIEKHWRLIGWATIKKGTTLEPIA

[7] = target: FLAG-tagged Gcd11 WT (S. cerevisiae) (UniProt P32481); assay: as above
[8] = target: T4, N-terminally 3xFLAG-tagged Sui2 L205E (S. cerevisiae) (UniProt P20459); assay: co-IP; N-terminally 3xFLAG-tagged Sui2 variants (TEF2 promoter) precipitated with anti-FLAG beads from yeast extract; Western blot for myc-Cdc123, Gcd11 and Sui3
T4 sequence: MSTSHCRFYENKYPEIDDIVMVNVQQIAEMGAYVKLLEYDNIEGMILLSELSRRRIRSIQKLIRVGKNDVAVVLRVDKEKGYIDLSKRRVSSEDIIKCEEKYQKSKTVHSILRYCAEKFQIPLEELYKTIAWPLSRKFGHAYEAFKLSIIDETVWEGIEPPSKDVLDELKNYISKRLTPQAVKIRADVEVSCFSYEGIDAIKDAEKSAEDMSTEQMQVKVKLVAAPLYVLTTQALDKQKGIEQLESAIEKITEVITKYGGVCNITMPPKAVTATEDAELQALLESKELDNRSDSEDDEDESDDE

[9] = target: T5, N-terminally 3xFLAG-tagged Sui2 V220E (S. cerevisiae) (UniProt P20459); assay: as above
T5 sequence: T4 sequence with E205L, V220E

[10] = target: T6, C-terminally FLAG-tagged Cdc123 (S. cerevisiae, UniProt Q05791 1-360); assay: co-IP; Cdc123-FLAG precipitated with anti-FLAG beads from yeast strains overexpressing HA-tagged Sui2 variants (or Sui3) from the GAL1 promoter, compared with endogenous levels
T6 construct: Cdc123 of S. cerevisiae; also called Cdc123^FLAG; source: S. cerevisiae, in lysate; not shown: FLAG, C-terminal, kept
T6 sequence (looked up): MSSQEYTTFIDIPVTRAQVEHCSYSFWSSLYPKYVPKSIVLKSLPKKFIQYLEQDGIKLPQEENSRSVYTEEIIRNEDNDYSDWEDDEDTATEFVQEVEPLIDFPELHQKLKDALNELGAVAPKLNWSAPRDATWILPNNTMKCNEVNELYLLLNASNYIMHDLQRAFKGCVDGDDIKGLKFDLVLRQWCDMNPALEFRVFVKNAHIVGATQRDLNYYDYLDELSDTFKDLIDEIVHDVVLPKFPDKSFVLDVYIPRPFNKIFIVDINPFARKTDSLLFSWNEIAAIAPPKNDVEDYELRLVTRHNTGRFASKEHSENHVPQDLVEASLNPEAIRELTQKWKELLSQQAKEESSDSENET

[11] = target: T7, endogenously FLAG-tagged Sui2 (S. cerevisiae) (UniProt P20459); assay: co-IP; endogenously FLAG-tagged Sui2, Sui3 or Gcd11 precipitated with anti-FLAG beads from yeast extract, 4 °C, 2 h; Cdc123 signal normalised to the FLAG-tagged subunit, Gcd11 set to 100% (n = 3)
T7 sequence: T4 sequence with E205L

[12] = target: T6, C-terminally FLAG-tagged Cdc123; assay: co-IP; Cdc123-FLAG precipitated with anti-FLAG beads from yeast extract, 4 °C, 2 h; subunit signal in IP normalised to whole cell extract, Gcd11 set to 100% (n = 3); also SUI2/SUI2 against sui2Δ/SUI2 diploid strains (n = 4)
[13] = target: T4, N-terminally 3xFLAG-tagged Sui2 L205E (S. cerevisiae); assay: co-IP; N-terminally 3xFLAG-tagged Sui2 variants (TEF2 promoter) precipitated with anti-FLAG beads from yeast extract; Western blot for myc-Cdc123, Gcd11 and Sui3; remark: listed apart in the source
[14] = target: T5, N-terminally 3xFLAG-tagged Sui2 V220E (S. cerevisiae); assay: as above; remark: listed apart in the source
[15] = target: T8, N-terminally 3xFLAG-tagged Sui2 WT (TEF2 promoter) (S. cerevisiae) (UniProt P20459); assay: as above
T8 sequence: T4 sequence with E205L

For “heIF2γ (endogenous) (from UniProt P41091 1-472)”, the binding [1] was “binds”.

B1: Cdc123 (yeast) (protein, UniProt Q05791 1-360)
chain: T6 sequence (looked up)
In the case of B1, the binding [2] is reported as “no binding”, the binding [3] is reported as “no binding” and the binding [4] is reported as “binds”. The binding [5] was “no binding”, the binding [6] was “binds” and the binding [7] was “binds”.

B2: yeast eIF2γ (Gcd11) (natural protein, UniProt P32481 1-527, looked up)
chain: MSDLQDQEPSIIINGNLEPVGEPDIVEETEVVAQETQETQDADKPKKKVAFTGLEEDGETEEEKRKREFEEGGGLPEQPLNPDFSKLNPLSAEIINRQATINIGTIGHVAHGKSTVVRAISGVQTVRFKDELERNITIKLGYANAKIYKCQEPTCPEPDCYRSFKSDKEISPKCQRPGCPGRYKLVRHVSFVDCPGHDILMSTMLSGAAVMDAALLLIAGNESCPQPQTSEHLAAIEIMKLKHVIILQNKVDLMREESALEHQKSILKFIRGTIADGAPIVPISAQLKYNIDAVNEFIVKTIPVPPRDFMISPRLIVIRSFDVNKPGAEIEDLKGGVAGGSILNGVFKLGDEIEIRPGIVTKDDKGKIQCKPIFSNIVSLFAEQNDLKFAVPGGLIGVGTKVDPTLCRADRLVGQVVGAKGHLPNIYTDIEINYFLLRRLLGVKTDGQKQAKVRKLEPNEVLMVNIGSTATGARVVAVKADMARLQLTSPACTEINEKIALSRRIEKHWRLIGWATIKKGTTLEPIA
notes: Gcd11, eIF2 gamma subunit of S. cerevisiae, untagged endogenous protein detected with antiserum; source: endogenous, S. cerevisiae (W303 derivatives) lysate
In the case of B2, the binding [8] is reported as “no binding”, the binding [9] is reported as “no binding” and the binding [10] is reported as “binds”. For the same molecule, the binding [11] was “binds” and the binding [12] was “binds”.

B3: myc-tagged Cdc123 (protein, UniProt Q05791 1-360)
chain: T6 sequence (looked up)
For B3, the binding [13] was “binds weakly”, the binding [14] was “binds weakly” and the binding [15] was “binds weakly”.
